The campaign covered roughly 390,000 compounds. About 150 (0.038%) were called active. The inconclusive results got no clear call from the source; some entries with a clear call stand among them for comparison. Calls come from the whole dose curve; as a rule, active = well fitted inhibition curve with a large enough effect; inconclusive = small, poorly fitted or top-dose-only effect; inactive = no such curve, though single readings can be large or run the other way. Potencies of inconclusive entries are doubtful fits and often do not repeat.
The molecules below were run against Regulator of G-protein signaling 4 (Homo sapiens) (UniProt P49798) (assay: Inhibitors of Regulator of G Protein Signaling (RGS) 4: qHTS). Conditions: Transcreener GDP fluorescence polarization, RGS4-accelerated GTP hydrolysis; series mostly up to 114 µM.
Sequence of UniProt P49798 (P49798 whole entry, looked up): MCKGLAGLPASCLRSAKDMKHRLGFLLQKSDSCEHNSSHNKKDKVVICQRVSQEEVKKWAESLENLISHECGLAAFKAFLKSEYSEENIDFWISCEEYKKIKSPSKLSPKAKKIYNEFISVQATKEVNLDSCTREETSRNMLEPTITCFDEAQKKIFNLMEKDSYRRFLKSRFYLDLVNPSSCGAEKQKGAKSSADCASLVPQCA
Procedure, shortened: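 MLSMR compounds (23 nl, pin-transferred) preincubated 10 min at room temperature with a 500nM (2x) first reagent, then RGS4 at 900nM (2x) plus Transcreener GDP mix added; fluorescence polarization (620/688 nm) read before and after 90 min at 30 °C.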
With `Brc1ccc(C2Nc3cccc4cccc(c34)N2)cc1` the Potency was inconclusive: 28.2 µM [inhibitor, full curve, poor fit]. For `COc1ccc(-c2nn(-c3ccccc3)cc2C(=O)O)cc1OC`, the Potency was “inactive”. In the case of `CCCn1cc(S(=O)(=O)c2cccc(Cl)c2)c(=O)c2cc(F)c(N3CCCC3)cc21`, the Potency is reported as “inactive”. For `Cc1ccc(Nc2c(-c3ccc(C)o3)nc3cnccn23)cc1`, the Potency was inconclusive: 44.7 µM [inhibitor, partial curve, poor fit]. With `CC(C)[C@H]1CC[C@@H](C)C[C@H]1O` the Potency was “inactive”. `O=C(COC(=O)c1ccccc1F)Nc1ccc(S(=O)(=O)N2CCOCC2)cc1` was tested, and the Potency was inconclusive: 100 µM [inhibitor, single point]. For `COc1cccc(-c2ccc(-c3noc(-c4cccs4)n3)c(OC)n2)c1`, the Potency was inconclusive: 89.1 µM [inhibitor, single point]. For `O=C(CSc1ccc(-c2cccnc2)nn1)Nc1ccc(F)cc1`, the Potency was “inactive”. With `NC(=O)/C(=N\OC(=O)c1ccco1)c1nc(-c2ccc(Br)cc2)cs1` the Potency was inconclusive: 44.7 µM [inhibitor, partial curve, poor fit]. `CC(=O)Nc1ccc(SCC(=O)c2cc(C)ccc2C)cc1` was tested, and the Potency was inconclusive: 28.2 µM [inhibitor, full curve, poor fit]. With `Cc1ccc(SCc2[nH]nc3c2C(c2cccnc2)C(C#N)=C(N)O3)cc1` (stereo not given) the Potency was “inactive”. `O=C(Cc1cnn(-c2ccccc2)c1)c1ccc(O)c(O)c1O` was tested, and the Potency was inconclusive: 89.1 µM [inhibitor, partial curve, poor fit]. For `Oc1ccc(NCc2ccc(OCc3ccccc3)cc2)cc1`, the Potency was inconclusive: 79.4 µM [inhibitor, partial curve, poor fit]. `COc1ccc(N2CCN(C(=O)c3cc4c(-c5cccc(OC)c5)nn(C)c4s3)CC2)cc1` was tested, and the Potency was inconclusive: 79.4 µM [inhibitor, single point]. With `Cn1c(-c2ccc(F)cc2)cc2onc(-c3c(F)cccc3Cl)c2c1=O` the Potency was “inactive”. `Cc1ccc2cc(CCl)c(Cl)nc2c1` was tested, and the Potency was “inactive”. In the case of `CSCC[C@@H](N)C(=O)O`, the Potency is reported as inconclusive: 0.0119 µM [inhibitor, full curve, poor fit]. With `CC(C)CC1C(C#N)=C(N)Oc2n[nH]c(-c3cccs3)c21` (stereo not given) the Potency was “inactive”. For `Cc1c(C(=O)N2CCOCC2)c(S(=O)(=O)Nc2cccc(Br)c2)c(C)n1C`, the Potency was inconclusive: 100 µM [inhibitor, partial curve, poor fit]. With `CCOC(=O)Nc1sc2c(c1C(N)=O)CCC(C)C2` (stereo not given) the Potency was inconclusive: 70.8 µM [inhibitor, single point].

— PubChem BioAssay AID504845 (National Center for Advancing Translational Sciences (NCATS), 2011)
Note: nearly all actives have a fitted effect of over 75% in size.
Potency is the fitted concentration of half-maximal effect; tags give direction and shape of the fitted curve.
